Measurements from PubChem BioAssay AID1508642 (National Center for Advancing Translational Sciences (NCATS), 2021).
Hit rate of the full screen: of about 43,000 compounds, about 200 (0.47%) were called active. Inconclusive results (about 12%) are left out. Calls follow the shape of the dose curve; as a rule, active = well fitted cell-killing curve with a large enough effect; inconclusive = small, poorly fitted or top-dose-only effect, or effect the other way; inactive = flat fitted curve, though single readings scatter. The list shows a part of the results.

experiment: Cell viability qHTS assay in S16 Pmp22-F2sN cells; conditions: S16 Pmp22-F2sN Schwann cells viability, CellTiter-Glo, 24 h; series mostly up to 57.5 µM; activity change, negative = cytotoxicity: at the top concentration; also: nearly all actives have a fitted effect of over 65% in size
Procedure, shortened: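 Viability was measured by CellTiter-Glo luminescence (15 min, room temperature). This followed 24 h at 37 °C of compound exposure (23 nL pin transfer) in S16 Pmp22-F2sN Schwann cells, 500-1,000 per well.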
% is scaled to controls: 0 for no effect and ±100 for the full control effect.

Compound | activity change, negative = cytotoxicity
Cc1ccc2nc(-c3cccc(NC(=O)c4ccc(Br)o4)c3)oc2c1 | inactive: 20.2%
CCOc1ccccc1-n1nnc(-c2nc(-c3ccccc3C)no2)c1C | inactive: 2.5%
O=C(Nc1ccc(F)c(Cl)c1)C1CCN(S(=O)(=O)c2ccc3[nH]c(=O)ccc3c2)CC1 | inactive: -2.86%
Cc1ccc2cc(CN(C)C(=O)c3cccc(Cl)c3)c(=O)[nH]c2c1 | inactive: -8.41%
Cc1ccccc1NC(=O)c1cccc2c(=O)c3c([nH]c12)CCCC3 | inactive: -1.54%
Cc1ccc(NC(=O)CSc2ccc3nnc(CCNS(=O)(=O)c4ccccc4)n3n2)cc1Cl | inactive: -3.93%
Cc1ccc(Cl)cc1NC(=O)N1CCC(CN2CCCCCC2)CC1 | inactive: -24.9%
CN(C)CCNC(=O)c1ccc2c(c1)N(Cc1ccccc1)C(=O)c1ccccc1S2(=O)=O | inactive: 9.62%
Cc1ccc2c(c1)N(S(=O)(=O)c1cc(-c3onc(C)c3C)ccc1C)CCO2 | inactive: -13.7%
O=C(CN1C(=O)COc2ccc(S(=O)(=O)N3CCCC3)cc21)N1CCN(c2ccc(Cl)cc2)CC1 | inactive: -0.844%
COc1cccc(-n2cc(C(=O)OCc3ccc(F)c(F)c3)c3ccccc3c2=O)c1 | inactive: 6.8%
COc1ccccc1CNC(=O)CCn1c(=O)c2ccccc2n(CC(=O)Nc2ccc(Br)cc2F)c1=O | inactive: 15.9%
O=C1c2[nH]nc(-c3ccccc3O)c2C(c2cccc(O)c2)N1Cc1ccncc1 (stereo not drawn) | inactive: -6.77%
O=C(Cn1cc(C(=O)c2ccncc2)c(=O)c2cc(F)ccc21)Nc1ccc(Cl)cc1 | inactive: -0.428%
COCCCNC(=O)N1[C@H](c2cccs2)[C@@H](C)C(=O)[C@@H](C)[C@@H]1c1cccs1 | inactive: -10.4%
CCOc1ccc(CCNC(=O)c2cc3c(=O)oc4ccc(C)cc4c3s2)cc1OCC | inactive: 2.02%
CCOC(=O)c1ccc2c(c1)N(CC(=O)N(C)c1ccccc1)C(=O)c1ccccc1S2 | inactive: 9.45%
COc1ccccc1NC(=O)c1cc(=O)c2ccc(C)c(C)c2o1 | inactive: 17.6%
COc1ccc(-c2cn(-c3ccc(C)cc3)c(S(=O)(=O)CC(=O)Nc3ccc(F)cc3)n2)cc1 | inactive: -25.6%
Cc1ccc(Cc2c(C)nc3nc(SCC(=O)NC4CCC(C)CC4)nn3c2C)cc1 (stereo not drawn) | inactive: 9.49%
CC1CCCCN1C(=O)CSc1n[nH]c(-c2ccccc2Cl)n1 (stereo not drawn) | inactive: -3.37%
O=C(CC1N=C2c3ccccc3N=C(SCc3cccc(Cl)c3)N2C1=O)NCc1ccc2c(c1)OCO2 (stereo not drawn) | inactive: -15.5%
N#C/C(=C\c1ccc(-c2ccc(C(=O)O)cc2)o1)C(=O)Nc1ccccc1C(=O)O | inactive: 10%
Cc1nn(CCC(=O)Nc2cc(F)ccc2F)c(=O)c2nn(-c3ccccc3)c(C)c12 | inactive: 0.689%

Compound | activity change, negative = cytotoxicity
CCOc1ccccc1NC(=O)N1CC(CC)Oc2ccccc21 (stereo not drawn) | inactive: 10.8%
Cc1ccc(C(=O)CSc2nc(-c3ccccc3)nc3c2CCCC3)cc1 | inactive: 16.9%
CCOC(=O)CSc1nc(-c2ccc(C)cc2C)cc(-c2ccccc2)c1C#N | inactive: 5.24%
COc1cccc(CNCCNC(=O)c2nonc2N)c1 | inactive: -2.27%
Cc1cccc(NS(=O)(=O)c2c(C)nc3sccn3c2=O)c1C | inactive: -0.216%
O=C(NCc1ccccc1Cl)c1cc2c(s1)-c1ccc(Cl)cc1SC2 | inactive: 15.8%
CCSc1nc2c([nH]c3ccccc32)c(=O)n1CC | inactive: -4.95%
O=C(Cn1c(=O)nc(-c2ccccc2)c2ccccc21)Nc1cccc(C(F)(F)F)c1 | inactive: 16.3%
Cc1c(C(=O)NCc2cccc(Cl)c2)sc2ncnc(N(C)C3CCCCC3)c12 | inactive: -5.47%
CC(C)(C)C(=O)Nc1cccc(-c2cn3cccnc3n2)c1 | inactive: 13.7%
COc1cccc(-n2c(=O)c3c(C)c(C)sc3n(CC(=O)NCc3ccc(C)cc3)c2=O)c1 | inactive: 14.7%
Cc1cccc(CSc2ncc(Cl)c(C(=O)Nc3sc4c(c3C(N)=O)CCCC4)n2)c1 | inactive: -5.17%
COc1ccccc1NC(=O)CSC1=Nc2ccccc2C2=NC(CC(=O)NCc3ccco3)C(=O)N12 (stereo not drawn) | inactive: 3.09%
Cc1ccc(C(=O)Nc2cc3c(cc2C)n(C)c(=O)c(=O)n3C)cc1 | inactive: 4.34%
CCOc1ccccc1CN1CCN(S(=O)(=O)c2ccccc2)CC1 | inactive: -12.8%
Cc1ccccc1NC(=O)c1ccc2c(c1)c(C)c(C)n2Cc1ccccc1 | inactive: -3.37%
CC(=O)c1cccc(NC(=O)c2oc3c(c2C)-c2nn(Cc4ccc(Cl)cc4)cc2CC3)c1 | inactive: -3.71%
O=C(CN1N=C(c2ccc(Cl)cc2)CCC1=O)NCCc1ccc(Cl)cc1 | inactive: -13.7%
COCc1nc2ccccc2n1CCOc1cccc(C)c1 | inactive: 0.952%
COc1ccc(S(=O)(=O)N2CCCN(CC(=O)Nc3ccc(NC(C)=O)cc3)CC2)cc1 | inactive: 4.63%
Cc1nc2c(C(=O)NCCCN(CC(C)C)CC(C)C)cnn2c(C)c1Cc1c(F)cccc1Cl | inactive: 0.415%
CCCOC(=O)c1c(NC(=O)c2nc3ncccn3n2)sc(C(N)=O)c1C | inactive: 23%
COc1ccc(OC)c(CNC(=O)c2ccc(Sc3ccc(C)cc3)c(N)c2)c1 | inactive: -26.9%
CCc1ccc(-n2nc(C)c3c(C)cc(=O)n(Cc4nc(-c5ccccc5)oc4C)c32)cc1 | inactive: 6.78%
